The list shows a part of the results.
tested on: T1, C. trachomatis L2/434/Bu expressing GFP (CTL2-GFP); design: species or system HeLa; C. trachomatis total inclusion area by high-content imaging, normalised to DMSO; conditions: total inclusion area; 28.5 h, 10 µM; inhibitor
T1 construct: L2/434/Bu GFP intracellular growth in HeLa cells
Outline: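 Bulk GFP and resorufin signals were read first. Wells were then fixed, stained with Hoechst and imaged to detect GFP inclusions and host nuclei. MICs followed the previously described calculation.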

Compound | % of control remaining
O=C(O)CCN1CCCC2(CCN(C(=O)Cc3c[nH]c4ccccc34)C2)C1 (stereo not drawn) [CBK137138] | 98.5799
CN(C)c1cccc(-c2ccc(Nc3cccc(NC(=O)c4ccncc4)c3)nc2)c1 [CBK037721] | 28.805
Cc1cc(CNC(=O)N2CCCC(CO)C2)no1 (stereo not drawn) [CBK156028] | 84.9197
Cc1nn(C)cc1-c1cncn1CCCn1ccnc1C(C)C [CBK281972] | 99.8432
CC(C)C(=O)NCCn1nc(-c2ccco2)ccc1=O [CBK283863] | 103.75
CCCn1nc(C)cc1NC(=O)c1ncoc1-c1ccc(F)cc1 [CBK282361] | 100.029
CN(C)C1(c2nnnn2CCOC(=O)Nc2ccc(Cl)cc2)CCCCC1 [CBK266093] | 88.1356
CCCCCC(=O)Nc1ccc(S(=O)(=O)Nc2nnc(CC)s2)cc1 [CBK045478] | 18.0658
COc1cc(NC(=O)CC2SC(NC3CCCCC3)=NC2=O)c(OC)cc1Cl (stereo not drawn) [CBK059497] | 82.9924
CCNc1nc(-c2ccsc2)cn2ccnc12 [CBK037375] | 91.6919
CN(C)C(=O)c1cc2cc(NC(=O)CC3COCCN3)ccc2s1 (stereo not drawn) [CBK306710] | 59.0579
Cc1ccccc1-n1ccn(S(=O)(=O)C(C)C)c1=O [CBK106566] | 103.889
Cc1ccc(-c2nc(Nc3ccc(Br)cc3)sc2CC(=O)O)cc1 [CBK264251] | 103.132
O=C(c1cc2c(F)cccc2[nH]1)N1CCC(Oc2cccnc2)CC1 [CBK281468] | 84.7996
O=C(c1ccc2ncccc2c1)N1CCN(c2ncccn2)CC1 [CBK144503] | 106.703
O=C(c1ccc([N+](=O)[O-])cc1)n1nc(-c2cccnc2)nc1NCc1ccc(F)cc1 [CBK268962] | 109.729
COc1ccccc1NC(=S)NCCc1ccccn1 [CBK265358] | 96.823
COC1CCCC(C(=O)N2CCC(c3onc4c3CCC4)CC2)C1 (stereo not drawn) [CBK285519] | 94.4278
O=C(CN1C(=O)c2ccc([N+](=O)[O-])cc2C1=O)Nc1cccc2c1C(=O)N(c1ccccc1)C2=O [CBK265576] | 88.2091
O=S(=O)(Nc1cccc2cc[nH]c12)c1cc(Cl)ccc1Cl [CBK153581] | 94.6056
COc1nccnc1N1CCN(CCc2c[nH]c3ccccc23)CC1 [CBK084231] | 79.6088
COc1ccc(S(=O)(=O)Nc2ccc(C(=O)O)c(O)c2)cc1[N+](=O)[O-] [CBK299771] | 102.571
COc1cc(/C=N/c2ccc(O)c(-c3nc4ccccc4s3)c2)ccc1OC(=O)c1ccc(Cl)cc1Cl [CBK261243] | 107.227
CC(C)(C)NC(=O)C1C2CCC3(CC(=O)c4cc(Cl)ccc4O3)C21 (stereo not drawn) [CBK284963] | 83.6312
Cc1ccccc1-c1ccc2n(c1=O)C[C@H]1C[C@@H]2CN(C(=O)CCC(=O)O)C1 [CBK289181] | 97.3991
O=c1[nH]c2ncc(-c3ccsc3)nc2n1Cc1ccccc1 [CBK064227] | 120.377

Compound | % of control remaining
Cc1ccc(C(=O)CC(C(=O)O)c2c(C)[nH]c3ccccc23)cc1 (stereo not drawn) [CBK269337] | 103.248
CC(=O)N1CC[C@H]2NC(=O)CNC(=O)C3(CCCC[C@H]2C1)CCN(Cc1ccc(Cl)cc1)CC3 [CBK292119] | 112.522
CCC(=O)N(C)C1CCN(c2ncnc3ccccc23)CC1 [CBK304829] | 96.4982
O=C(NCCO)NC(=S)c1ccccc1 [CBK267213] | 107.618
COCCNC(=O)c1cc2n(n1)C(C(F)(F)F)CC(c1ccccc1)N2 (stereo not drawn) [CBK307610] | 69.5552
O=C(CSCc1ccc(Br)cc1)Nc1ccc(S(=O)(=O)N2CCOCC2)cc1 [CBK267845] | 101.859
Cc1nc(CN2CCN(c3ccc4nnnn4n3)CC2)cs1 [CBK306056] | 70.1644
O=C(CSc1ccc2nnc(-c3ccc(F)cc3)n2n1)N1CCCC1 [CBK287519] | 93.4781
O=C1CN(Cc2nc(-c3cccc(C(F)(F)F)c3)no2)CCN1 [CBK306038] | 25.5265
COc1ccc(-c2ccc(OC3CCNCC3)cc2)c(OC)c1 [CBK093816T] | 68.588
O=C(O)c1cccnc1SCc1cc2c(cc1Cl)OCO2 [CBK287178] | 95.5681
N#Cc1c(NC(=O)CSc2nc(=O)cc(N)n2CCc2ccccc2)sc2c1CCCC2 [CBK293993] | 107.587
c1sc(C2CN3CCCC3CO2)nc1C1CCCC1 (stereo not drawn) [CBK304814] | 93.8646
COc1ccc(C)cc1S(=O)(=O)Nc1cc(NCCCN2CCOCC2)c2occc2c1 [CBK067837C] | 70.2337
c1ccc2[nH]c(SCCN3CCOCC3)nc2c1 [CBK262593] | 85.1746
COCCN(Cc1cnn(C)c1)C(=O)NCc1nc2c(C)cccc2o1 [CBK307642] | 53.6405
O=C(O)C1C2C=CC(C2)C1C(=O)NCc1ccncc1 (stereo not drawn) [CBK265403] | 103.735
Cc1sc2c(C3CCN(C(=O)C4CC4C)CC3)nc(C)n2c1C (stereo not drawn) [CBK285299] | 45.4673
COc1ccc(Cl)cc1-c1noc(Cn2nc(C)c(Cl)c2C)n1 [CBK269813] | 88.8495
Cc1cc(C)cc(NC(=O)c2ccc(CSc3nnc(N)s3)cc2)c1 [CBK266609] | 83.1605
COC(=O)/C=C/c1cccc(-c2cnc(N)c(-c3ccc(O)cc3)n2)c1 [CBK125689] | 118.656
O=C(c1cncnc1)N1CCC2(CCN(C(=O)c3cc(F)c(F)cc3F)C2)C1 (stereo not drawn) [CBK131405] | 108.593
OC(CNCc1cccs1)c1ccccc1 (stereo not drawn) [CBK057092] | 57.0953
COc1ccc(C(C)C)cc1-c1cncc(N2CCN(Cc3ccccn3)CC2)n1 [CBK065792] | 87.0061
CN(C)c1nc(-c2cc(C(F)(F)F)cc(C(F)(F)F)c2)ccc1C(=O)NCc1ccco1 [CBK106094] | 80.2063

From PMC12040169 (PLOS Biology, 2025)
